These compounds were tested against hpMR1 (UniProt C1ITJ8+Q95460). Conditions: extracted ion chromatogram AUC analysis.

Q: How did the “fold lower abundance in hpMR1+MS as compared to hpMR1+EC” value turn out when `Cc1nc2c(=O)[nH]c(=O)nc-2n(C[C@H](O)[C@H](O)[C@H](O)CO)c1O` [RL-6-Me-7-OH, reference compound] was run?
A: 2.8 fold

Same assay, conditions: tandem mass spectrometry; hpMR1-bac, +EC, +MS

Q: For `Cc1nc2c(=O)[nH]c(=O)nc-2n(C[C@H](O)[C@H](O)[C@H](O)CO)c1O` [RL-6-Me-7-OH, reference compound], which “presence among ligands eluted from hpMR1 preparations” value (“presence among ligands eluted” for short) is on record?
A: eluted and identified in hpMR1+EC and +MS but not hpMR1-bac

Q: With `O=c1nc2n(C[C@H](O)[C@H](O)[C@H](O)CO)c(O)c(-c3c[nH]c4ccccc34)nc-2c(=O)[nH]1` [PLIII] as the compound, how does the “presence among ligands eluted” value read?
A: present in both hpMR1+EC and +MS

Q: With `CC(=O)C=Nc1c(NC[C@H](O)[C@H](O)[C@H](O)CO)[nH]c(=O)[nH]c1=O` [5-OP-RU, 5-(2-oxopropylideneamino)-6-D-ribityluracil] as the compound, how does the “presence among ligands eluted” value read?
A: eluted and identified in hpMR1+EC and +MS but not hpMR1-bac

Q: `O=c1nc2n(C[C@H](O)[C@H](O)[C@H](O)CO)c3cc(O)ccc3cc-2c(=O)[nH]1` [FO] was tested. Which “presence among ligands eluted” value did it give?
A: most prevalent hpMR1+MS-specific ion in the cluster

Q: With “reduced 6-hydroxymethyl-8-D-ribityllumazine [rRL-6-CH2OH]” as the compound, how does the “presence among ligands eluted” value read?
A: eluted and identified in hpMR1+EC and +MS but not hpMR1-bac

From US10457682B2, “Small molecules that bind MR1” (OREGON HEALTH & SCIENCE UNIVERSITY, priority 2016, dated 2019)
